# Source: patent US8377884B2, “Variants of C-type natriuretic peptides” (Biomarin Pharmaceutical Inc., priority 2007, dated 2013)
# Read-outs that look alike come from different tables or passages of the source. Not every detail of the peptide structures is certain; ends, links or a residue may be inferred.
# Columns and labels:
# [1] = test system: rat chondrosarcoma (RCS) cells; assay: Reversal of FGF2-induced growth arrest of rat chondrosarcoma (RCS) cells; type: cell-based; settings: for effect on chondrocyte growth relative to continuous CNP22 (0.2 uM) exposure: FGF-2 5 ng/mL
# [2] = test system: wild-type tibiae; settings: cited from earlier work
# [3] = Isoelectric point (pI); type: physicochemical
# [4] = target: T1, human NPR-C (Homo sapiens, UniProt P17342); assay: Signaling competition assay with NPR-C expressed in NIH3T3 cells; type: cell-based; settings: NIH3T3 cells transiently expressing human NPR-C
# T1 construct: host or cells: NIH3T3 (murine), transient transfection
# T1 sequence (P17342 27-541): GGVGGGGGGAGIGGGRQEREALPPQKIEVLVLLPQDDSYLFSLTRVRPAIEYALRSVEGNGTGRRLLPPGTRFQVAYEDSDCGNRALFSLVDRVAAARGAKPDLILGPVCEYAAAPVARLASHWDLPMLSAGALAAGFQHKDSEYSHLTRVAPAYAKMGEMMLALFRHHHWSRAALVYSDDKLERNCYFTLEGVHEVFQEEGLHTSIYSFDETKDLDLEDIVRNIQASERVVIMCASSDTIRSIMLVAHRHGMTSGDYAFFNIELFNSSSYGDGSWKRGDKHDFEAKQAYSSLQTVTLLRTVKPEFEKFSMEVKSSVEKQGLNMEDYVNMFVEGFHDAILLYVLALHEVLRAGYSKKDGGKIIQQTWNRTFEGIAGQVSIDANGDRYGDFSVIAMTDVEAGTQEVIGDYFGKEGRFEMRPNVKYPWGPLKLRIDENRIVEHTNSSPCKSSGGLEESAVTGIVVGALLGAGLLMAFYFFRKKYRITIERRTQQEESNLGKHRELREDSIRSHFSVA
# [5] = test system: wild-type femurs; assay: Mouse organ culture model, longitudinal femoral growth; settings: femurs of 3-day old wild-type mice, treated every two days for 8 days
smiles,measurement,setting,value
"CC[C@H](C)[C@@H]1NC(=O)[C@H](CCCNC(=N)N)NC(=O)[C@H](CC(=O)O)NC(=O)[C@H](CC(C)C)NC(=O)[C@H](CCCCN)NC(=O)[C@H](CC(C)C)NC(=O)CNC(=O)[C@H](Cc2ccccc2)NC(=O)[C@@H](NC(=O)CNC(=O)[C@H](CCCCN)NC(=O)[C@H](CO)NC(=O)[C@H](CC(C)C)NC(=O)CN)CSSC[C@@H](C(=O)O)NC(=O)CNC(=O)[C@H](CC(C)C)NC(=O)CNC(=O)[C@H](CO)NC(=O)[C@H](CCSC)NC(=O)[C@H](CO)NC(=O)CNC1=O [CNP22, CNP-22]",growth of RCS cells,[1]; 0.2 uM continuous (72 hr) in the presence of 5.0 ng/mL FGF-2,approximately 200×10^3 cells per well
same,effect on chondrocyte growth relative to continuous CNP22 (0.2 uM) exposure,[1]; 1 hr exposure (0.2 uM) once a day,about 84%
same,effect on chondrocyte growth relative to continuous CNP22 (0.2 uM) exposure,[1]; 2 hr exposure (0.2 uM) once a day,about 84%
same,effect on extracellular matrix,"[1]; histological and cell morphological analysis, data not shown",antagonized FGF2-mediated loss of chondrosarcoma extracellular matrix and increased matrix synthesis
same,increase of longitudinal growth,[2]; 10^−6 M for 6 days,42%
same,increase of longitudinal growth,[2]; 10^−7 M for 6 days,40%
same,increase of longitudinal growth,[2]; 10^−8 M for 6 days,31%
same,pI,[3],8.9
same,expected effect on cGMP dose-response curve with NPR-C co-expressed,[4],decreased cGMP production and a shift in the dose-response curve to the right
same,stimulation of longitudinal femoral growth (in words),[5],effective in stimulating longitudinal femoral growth
